Broadly, the GI50 is the concentration that inhibits growth by half.

Molecules are shown by their SMILES.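 Results reflect a 48-hour exposure of cells in 96-well plates to compound at five concentrations. Abbreviation: GI50, concentration required for 50% inhibition of growth.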 Activity calls are given as the source filed them. No stated cut-off is given here; in the data, active = GI50 up to about 1.1 µM and inactive = higher.

The subject of this assay is NCI-H322M. Briefly: DTP human tumour cell line panel, 48 h.
As for `Nc1ccc(N(S(=O)(=O)c2ccccc2)S(=O)(=O)c2ccccc2)c(Cl)c1`, the GI50 was inactive: > 100 µM.

As to `COc1ccc(CCCC(=O)O)c(C)c1`, the GI50 was inactive: > 100 µM.

Take `CCOC(=O)c1csc(NC(=O)CN2CCN(C)CC2)n1`: the GI50 is inactive: > 100 µM.

With `O=C(O)CC(Cc1ccc2c(c1)OCO2)C(=O)O` (stereo not given), the GI50 was inactive: > 100 µM.

Turning to `COc1ccc(/C=C2\C(=O)NC(=O)c3ccccc32)cc1OC`, the GI50 is inactive: > 93.8 µM.

With `CC(=O)OC12COC1CC(O)C1(C)C(=O)C(O)C3=C(C)C(O)CC(O)(C(OC(=O)c4ccccc4)C21)C3(C)C` (stereo not given), the GI50 was inactive: 5.79 µM.

On to `CCCCc1c2cnccc2c(CCCC)c2c1[nH]c1ccccc12`, for which the GI50 is inactive: 15.3 µM.

For `Cn1c(=O)c2[nH]c(/N=N/N3CCN(CCO)CC3)nc2n(C)c1=O`, the GI50 is inactive: > 100 µM.

Turning to `COc1ccc(-c2cc(-c3cc(OC)c(OC)c(OC)c3)cc(-c3cc4ccccc4oc3=O)n2)cc1`, the GI50 is inactive: 10.7 µM.

As for `O=C1CCCCC1C(O)(C(F)(F)F)C(F)(F)Cl` (stereo not given), the GI50 is inactive: > 10 µM.

Consider `O=C1C=CC(=C(c2ccccc2)c2ccc(O)cc2)C=C1`, for which the GI50 was inactive: 14.9 µM.

Consider `COc1cccc(N2C(=O)CSC2c2cccc(Oc3ccccc3)c2)c1` (stereo not given), for which the GI50 was inactive: 6.08 µM.

As for `Nc1nc(Cl)cc(NCCCCCCNc2cc(Cl)nc(N)n2)n1`, the GI50 was inactive: 3.13 µM.

For `O=C(Nc1nccs1)c1cc(C2=CC=CC([N+](=O)[O-])C=C2)nc(S)n1` (stereo not given), the GI50 was inactive: > 100 µM.

As for `N/N=C1\C(=O)N(c2ccc(Cl)c(Cl)c2)C(=O)C1C(=O)Nc1ccc(Cl)c(Cl)c1` (stereo not given), the GI50 is inactive: 49.1 µM.

Turning to `OCCOCn1nc(-c2ccccc2)nc1-c1cnccn1`, the GI50 is inactive: > 100 µM.

For the compound `CC1(O)CC23CC(O)C4(O)C(CC(O)C4(C)C)C(C)(O)C2CCC1C3O` (stereo not given), the GI50 is inactive: > 100 µM.

For `COC1OC2COC1(OC)C1OC(C)(C)OC21` (stereo not given), the GI50 is inactive: > 100 µM.

Turning to `O=C1/C(=C\c2cccc(Oc3ccccc3)c2)SC(c2ccccc2)N1c1cccc([N+](=O)[O-])c1` (stereo not given), the GI50 was inactive: > 100 µM.

On to `Nc1ncnn2c(C3OC(CO)C(O)C3O)ccc12` (stereo not given), for which the GI50 is active: 0.152 µM.

On to `CC(=O)N1OC(C)CC1Nc1ccc(Br)cc1` (stereo not given), for which the GI50 was inactive: > 100 µM.

As to `CCOC(=O)[C@H]1Nc2ccc(Cl)cc2[C@H]2c3ccccc3O[C@H]21`, the GI50 was inactive: 65.2 µM.

With `CCCCCC(O)C1C(=O)OC(C)C(O)/C=C/C=C/C=C/C=C\C=C(\C)C(O)CC(O)CC(O)CC(O)CC(O)CC(O)CC1O` (stereo not given), the GI50 was inactive: > 50 µM.

As to `O=C(CC(=O)C1CCOC1=O)C(=O)Nc1ccc(Cl)cc1Cl` (stereo not given), the GI50 is inactive: > 100 µM.

On to `Cc1cccc(C(C)C)c1NC(=O)/C(Cc1c([N+](=O)[O-])cccc1[N+](=O)[O-])=N/NC(=O)CC#N`, for which the GI50 is inactive: > 100 µM.

As to `C/C(CC(=O)NCCc1ccccc1)=N\NC(=O)C[n+]1ccccc1`, the GI50 was inactive: > 100 µM.

`CCCCC(C)/C=C/C(O)=C1\C(=O)O/C(=C\C(=O)O)C1=O` (stereo not given): the GI50 is inactive: > 100 µM.

Consider `OC1CCCC1C(O)(C(F)(F)F)C(F)(F)F` (stereo not given), for which the GI50 is inactive: > 100 µM.

In the case of `c1ccc2c(c1)SC1Sc3ccccc3[S+]21` (stereo not given), the GI50 is inactive: 56.1 µM.

As for `O=C1Nc2ccccc2N/C1=C\C(=O)C(F)F`, the GI50 is inactive: > 100 µM.

For `O=[N+]([O-])c1ccc(C2=NOC(c3ccccc3F)N2C23CC4CC(CC(C4)C2)C3)cc1` (stereo not given), the GI50 was inactive: > 100 µM.

Consider `CCOC(=O)CCc1c(C)c2c(OC(C)=O)cc(OC(C)=O)cc2oc1=O`, for which the GI50 is inactive: 48.2 µM.

Regarding `COc1ccc2nc3ccc(OC)cc3c([S+]([O-])CCCl)c2c1` (stereo not given), the GI50 was inactive: 16.2 µM.

For `COc1ccc(OC)c2c3c(ccc12)C(c1ccccc1)OC3=O` (stereo not given), the GI50 is inactive: 89.3 µM.

Consider `C/C(=N\NC(N)=S)c1ccc2c(c1)Sc1ccccc1O2`, for which the GI50 was inactive: 4.82 µM.

For the compound `O=P1(N2CCOCC2)OCCO1`, the GI50 was inactive: > 100 µM.

Turning to `COc1ccc(C(=O)C(C(=O)CCC(=O)Nc2ccc(Cl)c(Cl)c2)c2ccc(OC)cc2)cc1` (stereo not given), the GI50 was inactive: > 100 µM.

`N#Cc1c(Cl)c2cccnc2n2c1nc1ccccc12`: the GI50 is inactive: 12.3 µM.

In the case of `COC(=O)Cc1c(/C=C/C(C)(C)n2cnc(CCN3C(=O)CCC3=O)c2)[nH]c2ccccc12`, the GI50 was inactive: > 100 µM.

Turning to `CC(C)C(=O)N1C(=O)O[C@@H](c2ccccc2)[C@H]1C`, the GI50 was inactive: > 100 µM.

Take `CC1CCC(O)/C=C/C(=O)OC(C)C(O)/C=C/C(=O)O1` (stereo not given): the GI50 was inactive: > 100 µM.

`CC[N+]1(C)CCC(O)(c2ccccc2)C(C(=O)c2ccccc2)C1` (stereo not given): the GI50 was inactive: 20.5 µM.

Take `O=[N+]([O-])c1ccc(Cc2nc3cc4ccccc4cc3[nH]2)cc1C(F)(F)F`: the GI50 was inactive: 18.6 µM.

Turning to `CCc1cc2c(oc3cc4ccccc4cc32)c(=O)[nH]1`, the GI50 was inactive: > 10 µM.

For the compound `O=C1CCC(=O)N1Sc1ccccc1`, the GI50 was inactive: > 100 µM.

For `O=C(O)c1c(CC(Cc2ccc3c(c2)CCC3)C(=O)O)ccc2c1CCC2` (stereo not given), the GI50 is inactive: > 100 µM.

Regarding `CN(CC(=O)Nc1ccccc1C(=O)O)c1ccccc1`, the GI50 is inactive: > 100 µM.

Turning to `Nc1n2nc(-c3ccccc3)sc2n[n+]1CC(=O)c1ccccc1`, the GI50 was inactive: 14.1 µM.

Take `Cc1cccc2c(N)c3cccc(C(=O)NCC[N+](C)(C)Cc4sc(N5CCOCC5)nc4[N+](=O)[O-])c3nc12`: the GI50 is inactive: 2.9 µM.

Take `CC1CCC2N(C1)CC1C3(O)CC45OC6(O)C(O)CCC4(C)C6CCC5C3(O)CC(O)C1(O)C2(C)O` (stereo not given): the GI50 was inactive: > 100 µM.

As to `N#C/C(=C\c1cccc(O)c1O)C(N)=O`, the GI50 is inactive: 42.7 µM.

As to `COc1cc(/C=C/C(=O)O)ccc1C(=O)O/C=C/c1ccccc1`, the GI50 is inactive: > 100 µM.

Turning to `Cc1ccc(S(=O)(=O)NC(=N)N(C)N=O)cc1`, the GI50 is inactive: > 100 µM.

With `O=C(Nc1ccccc1)c1nn(-c2cc(S(=O)(=O)O)c([N+](=O)[O-])cc2Cl)[n+](-c2cc(S(=O)(=O)[O-])c([N+](=O)[O-])cc2Cl)n1`, the GI50 is inactive: > 100 µM.

Regarding `COc1cc(C2c3cc4c(cc3[C@@H](Nc3ccc(Oc5ccccc5)cc3)C3COC(=O)[C@H]23)OCO4)cc(OC)c1O` (stereo not given in full), the GI50 is inactive: > 34.8 µM.

In the case of `CC[C@@H](CCCCC1CC[C@H]2CC(=O)C[C@@H]12)OC` (stereo not given in full), the GI50 is inactive: > 100 µM.

Take `CNc1cc2c(c3ccccc13)C(CCl)CN2C(=O)c1cc2cc(OC)c(OC)c(OC)c2[nH]1` (stereo not given): the GI50 was active: 0.0158 µM.

For `CCc1ccc(Nc2cc(=O)[nH]c(=S)n2C)cc1`, the GI50 was inactive: > 100 µM.

For the compound `COc1cc(O)c2c(c1)C(=O)c1cc3c(c(O)c1C2=O)C(OC1OC(C)C(O)C(O)C1OC)C(OC)C(C)(O)C3=O` (stereo not given), the GI50 was inactive: 2.4 µM.

On to `COc1ccc([I+]c2ccc(OC)cc2)cc1`, for which the GI50 was inactive: > 100 µM.

The values are drawn from ChEMBL document CHEMBL1201862, “PubChem BioAssay data set” (2004).
